{"source": "PubChem BioAssay AID485297", "about": "(National Center for Advancing Translational Sciences (NCATS), 2010)", "note": "Hit rate of the full screen: of about 320,000 compounds, about 9,100 (2.8%) were called active. The inconclusive results got no clear call from the source; some entries with a clear call stand among them for comparison. Calls follow the shape of the dose curve; as a rule, active = well fitted activation curve with a large enough effect; inconclusive = small, poorly fitted or top-dose-only effect; inactive = no such curve, though single readings can be large or run the other way. Potencies of inconclusive entries are left out as doubtful fits. Potency is read from the fitted curve at half-maximal effect; tags tell the direction and shape of the fitted curve."}
{"assay": "qHTS Assay for Rab9 Promoter Activators; also: nearly all actives have a fitted effect of over 60% in size", "settings": "Huh7 Rab9 promoter-luciferase reporter, luminescence, 24 h; series mostly up to 9.22 µM", "procedure,_shortened": "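Steps: seed 1500 Huh7 Rab9-luc cells per well, rest 2 h at 37 °C; add compound in DMSO; incubate 24 h; add luciferase reagent, 10 min ambient; read luminescence.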"}
{"smiles": "O=C(CCCOc1ccccc1)Nc1nc2ccccc2[nH]1", "Potency": "inconclusive [activator, partial curve]"}
{"smiles": "CC(=O)c1cccc(OCc2cc(C(=O)N3C[C@@H](C)O[C@@H](C)C3)no2)c1", "Potency": "inconclusive [activator, partial curve]"}
{"smiles": "S=C(NCc1ccco1)Nc1ccc(Br)cc1Cl", "Potency": "inconclusive [activator, single point]"}
{"smiles": "Nc1nonc1-n1nnc(C(=O)N/N=C/c2ccco2)c1-c1ccccc1", "Potency": "inactive"}
{"smiles": "CC(=O)c1ccc(OC(=O)c2cc3ccccc3oc2=O)cc1", "Potency": "inactive"}
{"smiles": "Cc1cc(C(=O)N/N=C/c2cccn2C)n[nH]1", "Potency": "inconclusive [activator, partial curve]"}
{"smiles": "O=C(CSCc1ccccc1F)NCc1ccccc1", "Potency": "inconclusive [activator, partial curve]"}
{"smiles": "COc1cccc(CNC(=O)C(Cc2ccccc2)n2cccc2)c1", "note": "(stereo unspecified)", "Potency": "inactive"}
{"smiles": "Clc1ccc2oc(-c3cccnc3)nc2c1", "Potency": "inconclusive [activator, partial curve]"}
{"smiles": "Cc1nnc2n(-c3ccccc3)c(=O)c3c4c(sc3n12)COC(C)(C)C4", "Potency": "inconclusive [activator, single point]"}
{"smiles": "CCOc1ccc(C(=O)c2cccs2)cc1", "Potency": "inconclusive [activator, partial curve]"}
{"smiles": "CC(=Nc1ccc(C)c(C)c1)C1=C(O)CSC1=O", "Potency": "inconclusive [activator, partial curve]"}
{"smiles": "O=C(CN1CCCCC1)N/N=C/c1ccc(Cl)cc1", "Potency": "inactive"}
{"smiles": "CCCC(=O)Nc1ccc(-c2nc3cc(C)c(C)cc3o2)c(O)c1", "Potency": "active: 2 µM"}
{"smiles": "COCC(=O)Nc1nc2ccc(C)cc2s1", "Potency": "active: 1.12 µM"}
{"smiles": "CN(C)/C=C/C(=O)/C=C/c1ccc(Cl)cc1", "Potency": "inconclusive [activator, partial curve]"}
{"smiles": "COc1ccc(C(=O)Nc2ccccc2C(=O)N/N=C/c2ccco2)cc1", "Potency": "inconclusive [activator, single point]"}
{"smiles": "Cc1snc(SCC(=O)c2ccc(F)cc2)c1C#N", "Potency": "active: 2.82 µM"}
{"smiles": "CC1Sc2ccc(C(=O)O)cc2NC1=O", "note": "(stereo unspecified)", "Potency": "inactive"}
{"smiles": "Cc1cccc(/C(N)=N/OC(=O)c2ccco2)c1", "Potency": "inconclusive [activator, single point]"}
{"smiles": "Cc1cccc(NC(=O)c2ccc(N3CCCCC3)c([N+](=O)[O-])c2)n1", "Potency": "active: 2 µM"}
{"smiles": "CN(c1ccc(C(=O)N2CCOCC2)cc1[N+](=O)[O-])C1CCCCC1", "Potency": "inconclusive [activator, partial curve]"}
{"smiles": "CC(C)(C)OC(=O)NCc1ccc(CNC(=O)c2nc[nH]c2C(=O)NCc2ccccc2)cc1", "Potency": "inactive"}
{"smiles": "CC(C)(C)c1ccc(C(=O)Nc2cccc([N+](=O)[O-])c2)cc1", "Potency": "active: 2.24 µM"}
{"smiles": "CC(=O)C1=C(O)C(=O)N(c2ccc(O)cc2)C1c1ccccc1Cl", "note": "(stereo unspecified)", "Potency": "inactive"}
{"smiles": "NC(=O)NC(CC(=O)NCCCc1ccccc1)c1ccc(Cl)cc1", "note": "(stereo unspecified)", "Potency": "inactive"}
{"smiles": "c1ccc(-c2cnnc(N3CCCCC3)n2)cc1", "Potency": "active: 1.41 µM"}
{"smiles": "Cc1ccc(-c2nc(-c3cccnc3)no2)c(C)c1", "Potency": "active: 1.78 µM"}
{"smiles": "Cc1c(NC(=O)COC(=O)c2cc(-c3ccc(-c4ccccc4)cc3)nc3ccccc23)c(=O)n(-c2ccccc2)n1C", "Potency": "active: 2.51 µM"}
{"smiles": "COC(=O)c1ccc(N2CCCCC2)c(N)c1", "Potency": "active: 3.55 µM"}
{"smiles": "Fc1cc(Br)ccc1NC(=S)Nc1ccccc1", "Potency": "inconclusive [activator, partial curve]"}
{"smiles": "CC(C)c1ccc(NC(=O)N2CCc3ccccc3C2)cc1", "Potency": "active: 3.98 µM"}
{"smiles": "Cc1cc(C)nc(Nc2n[nH]c(-c3ccccc3Br)n2)n1", "Potency": "inconclusive [activator, partial curve]"}
{"smiles": "Cc1ccc2nc(NC(=O)COC(=O)c3ccncc3)sc2c1", "Potency": "inconclusive [activator, partial curve]"}
{"smiles": "COc1ccc(C(=O)Nc2ccccc2C(=O)Nc2ccncc2)cc1", "Potency": "inconclusive [activator, partial curve]"}
{"smiles": "COc1ccc2oc(C(=O)OCC(=O)N3CCCCC3)c(C)c2c1", "Potency": "inconclusive [activator, single point]"}
{"smiles": "CCc1nnc(NC(=O)CSc2nc3c(cc2C#N)CCCC3)s1", "Potency": "active: 0.501 µM"}
{"smiles": "CCOc1ccc(NC(=O)c2ccc(NC(=O)CSc3nc4ccccc4c(=O)[nH]3)cc2)cc1", "Potency": "inactive"}
{"smiles": "CNS(=O)(=O)c1ccc2nc(NC(=O)/C=C/c3ccco3)sc2c1", "Potency": "inconclusive [activator, single point]"}
{"smiles": "COC(=O)Cn1c(=O)cnc2ccccc21", "Potency": "inactive"}
{"smiles": "Cc1ccc(OCc2nnc(SCC(=O)N3C(C)CCCC3C)o2)cc1", "note": "(stereo unspecified)", "Potency": "inactive"}
{"smiles": "C=CCNc1nc(N)c(C(=O)Nc2cc(C)on2)s1", "Potency": "inconclusive [activator, partial curve]"}
{"smiles": "C=CCn1c(C)cc(C(=O)COC(=O)[C@@H](NC(=O)c2ccccc2Cl)C(C)C)c1C", "Potency": "inconclusive [activator, partial curve]"}
{"smiles": "C/C(=N\\NC(=O)c1ccccc1C)c1ccc(NC(=O)c2cccs2)cc1", "Potency": "inconclusive [activator, single point]"}
{"smiles": "CCOC(=O)c1cc2ccc3ccccc3c2s1", "Potency": "inconclusive [activator, single point]"}
{"smiles": "N#CCSc1ccc(-c2nc3ccccc3[nH]2)cn1", "Potency": "inconclusive [activator, partial curve]"}
{"smiles": "Cc1snc(SCC(=O)c2ccc(Cl)cc2)c1C#N", "Potency": "inconclusive [activator, partial curve]"}
{"smiles": "O=C(O)c1ccc(/C=N/Nc2ccc(C(F)(F)F)cn2)cc1", "Potency": "inconclusive [activator, full curve, poor fit]"}
{"smiles": "O=C(O)c1ccc(/C=N/Nc2ccc(Cl)nn2)cc1", "Potency": "inactive"}
{"smiles": "COC(=O)C1CCCCN1C(=O)c1cc(COc2cccc3cccnc23)on1", "note": "(stereo unspecified)", "Potency": "inactive"}
{"smiles": "O=[N+]([O-])c1ccccc1S(=O)(=O)Nc1cccc(-c2ccc(N3CCOCC3)nn2)c1", "Potency": "inconclusive [activator, partial curve]"}
